From paper PMC4336329 (PLoS ONE, 2015) come the findings set out here.

Hit rate of the full screen: of about 310,000 compounds, about 14,000 (4.5%) showed an effect of 50% or more. The effect is printed as a negative number. The list shows a part of the results.
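Also: peak tail current of the secondary pulse compared with the same well before compound.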

The target of the assay is human ether-à-go-go-related gene (hERG) potassium channel (human, UniProt Q12809). Description: primary screen, population patch clamp on CHO cells stably expressing hERG.
Sequence of human ether-à-go-go-related gene (hERG) potassium channel (Q12809 whole entry, looked up): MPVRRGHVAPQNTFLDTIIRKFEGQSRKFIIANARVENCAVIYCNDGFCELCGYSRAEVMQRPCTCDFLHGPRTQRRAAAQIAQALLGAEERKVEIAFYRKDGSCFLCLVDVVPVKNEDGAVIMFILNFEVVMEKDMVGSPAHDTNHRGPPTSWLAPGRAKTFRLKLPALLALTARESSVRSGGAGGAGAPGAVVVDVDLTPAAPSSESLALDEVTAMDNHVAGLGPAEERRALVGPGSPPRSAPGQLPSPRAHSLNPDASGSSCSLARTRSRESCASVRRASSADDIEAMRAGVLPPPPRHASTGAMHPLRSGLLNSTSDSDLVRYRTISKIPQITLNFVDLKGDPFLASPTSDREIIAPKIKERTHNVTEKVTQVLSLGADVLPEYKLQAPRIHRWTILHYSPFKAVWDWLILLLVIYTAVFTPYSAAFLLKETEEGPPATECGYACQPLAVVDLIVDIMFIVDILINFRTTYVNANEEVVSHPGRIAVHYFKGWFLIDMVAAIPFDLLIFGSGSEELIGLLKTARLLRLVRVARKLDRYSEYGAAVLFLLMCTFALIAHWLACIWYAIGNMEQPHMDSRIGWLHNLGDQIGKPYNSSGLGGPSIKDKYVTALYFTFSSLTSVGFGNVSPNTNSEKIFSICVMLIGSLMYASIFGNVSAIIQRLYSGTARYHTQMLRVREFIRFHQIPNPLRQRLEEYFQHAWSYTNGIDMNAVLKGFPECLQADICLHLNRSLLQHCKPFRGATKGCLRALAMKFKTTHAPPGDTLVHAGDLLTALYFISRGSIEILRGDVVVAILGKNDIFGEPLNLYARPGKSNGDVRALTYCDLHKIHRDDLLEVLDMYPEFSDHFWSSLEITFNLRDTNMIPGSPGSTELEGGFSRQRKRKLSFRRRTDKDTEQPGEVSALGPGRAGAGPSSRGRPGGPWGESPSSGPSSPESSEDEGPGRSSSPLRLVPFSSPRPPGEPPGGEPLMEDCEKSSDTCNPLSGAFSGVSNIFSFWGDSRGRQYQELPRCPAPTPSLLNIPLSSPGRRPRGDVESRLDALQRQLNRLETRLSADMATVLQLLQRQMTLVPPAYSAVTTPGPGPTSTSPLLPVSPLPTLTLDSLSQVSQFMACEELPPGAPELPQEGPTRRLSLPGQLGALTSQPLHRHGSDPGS
Regarding `O=c1cc(-c2ccc(O)c(O)c2)oc2cc(O)cc(O)c12`, the “hERG current change (%, negative = inhibition) at 10uM” value turned out to be 9.88%.
With `O=C(NCc1ccccn1)C1CCN(S(=O)(=O)c2ccccc2F)CC1` the figure was -8.17%; with `CN(CC(=O)Nc1ccc(Cl)c(C(F)(F)F)c1)C(=O)CCCNC(=O)c1ccc(Cl)cc1`, -52.2%.
On to `O=C(c1nc2ccccc2s1)N1CCN(c2ccccn2)CC1`, for which the “hERG current change (%, negative = inhibition) at 10uM” value is -30.9%.
To `CCOC(=O)c1c(N)sc2c1CCCC2` belongs -5.89%; to `COC(=O)Cc1ccc(NC(=S)NCc2ccccc2OC)cc1`, 12%; to `Cn1nc(C(=O)NC2CCCC2)c2ccccc2c1=O`, 1.63%.
To `Cc1ccc(S(=O)(=O)Nc2nc(N)n(-c3ccccc3)n2)cc1` belongs 21.2%.
As to `COc1cccc(/C=C2\NC(=O)NC2=O)c1O`, the “hERG current change (%, negative = inhibition) at 10uM” value turned out to be 17.9%.
With `CCc1cc(C(=O)c2ccc(OC)cc2)c(NC(=O)CN2CCCCC2)s1` the figure was 5%; with `Cc1nc2ccccc2c2nc(NC(=O)Cc3ccccc3)nn12`, -14.7%; with `CCOC(=O)CCCNC(=O)CSc1nnc(-c2ccccc2)c(-c2ccccc2)n1`, -48.8%.
As for `COc1cc(/C=N/NC(=O)Cn2cnc3c2c(=O)n(C)c(=O)n3C)ccc1O`, the “hERG current change (%, negative = inhibition) at 10uM” value is given as 18.1%.
To `Cc1nc2ccc(Cl)cc2c(=O)n1-c1ccccc1Cl` belongs 5.06%.
With `COc1cccc(CC(=O)N2CCN(Cc3cccc(Cl)c3)CC2)c1` the figure was -28.3%.
To `Cc1c(CN(C)C(=O)CSc2nc(-c3ccco3)cc(C(F)(F)F)n2)cnn1C` belongs -13.3%.
In the case of `CC/C(=N\N1CCCCCC1)c1c(O)n(-c2ccccc2C)c(=O)[nH]c1=O`, the “hERG current change (%, negative = inhibition) at 10uM” value is given as -15.7%.
With `CC(C)c1c(O)c2c(n(-c3ccccc3)c1=O)CCCC2` the figure was -6.37%.
With `COc1ccc(-c2csc(Nc3ccc(S(=O)(=O)Nc4cc(C)on4)cc3)n2)cc1` the figure was 19.7%.
With `COc1ccc(C(=O)NC2CCCN(Cc3ccccc3F)C2)c(OC)c1OC` (centres unmarked) the figure was -0.0609%; with `Cn1c(C(=O)NCc2cccs2)cc2c(=O)n(C)c3ccccc3c21`, 4.8%.
`COC(=O)c1ccccc1NC(=O)c1cc2ncc(Br)cn2n1`: the “hERG current change (%, negative = inhibition) at 10uM” value is 6.87%.
On to `Cc1cccc2cc(/C=N/Nc3ccc(C(=O)O)cc3)c(Cl)nc12`, for which the “hERG current change (%, negative = inhibition) at 10uM” value was found to be 6.62%.
With `CC(C)Cn1c(=O)c2c(nc3n2CC(C)CN3Cc2ccccc2)n(C)c1=O` (centres unmarked) the figure was -83.3%; with `COc1ccc(-c2c(-c3cc(OC)cc(OC)c3)n(C)c3ccc(-c4ccc(S(N)(=O)=O)cc4)cc23)cc1`, 14.8%.
As to `Cc1ccc(Nc2nc3ccccc3[nH]2)nc1`, the “hERG current change (%, negative = inhibition) at 10uM” value is -9.82%.
As for `COc1ccccc1Nc1nc(N)nc(CSC(=S)N2CCCCC2)n1`, the “hERG current change (%, negative = inhibition) at 10uM” value was 0.598%.
With `CCOC(=O)N1CCC(NS(=O)(=O)c2ccc3c(c2)CCN3C(C)=O)CC1` the figure was -0.517%.
Turning to `COc1ccc(NS(=O)(=O)c2ccc3c(c2)NC(=O)CCS3)cc1Cl`, the “hERG current change (%, negative = inhibition) at 10uM” value came to 3.76%.
With `CN(C)C(Cc1ccc(Cl)cc1)C(=O)c1ccccc1` (centres unmarked) the figure was -4.01%; with `COc1ccc(C(=O)NCCNc2ccccc2[N+](=O)[O-])cc1`, -8.54%.
Consider `CCCCC(=Nc1ccccc1OC)C1=C(O)CC(c2ccccc2)CC1=O` (centres unmarked), for which the “hERG current change (%, negative = inhibition) at 10uM” value came to 3.11%.
To `CCCc1cc(C(=O)Nc2ccc(C(=O)c3ccc(C)cc3)cc2)n(C)n1` belongs 2.4%.
With `Cn1c(CCN2CCCCC2)nc2cc(NC(=O)COc3ccc([N+](=O)[O-])cc3)ccc21`, the “hERG current change (%, negative = inhibition) at 10uM” value is listed as -63.1%.
On to `Cc1cc(SCC(=O)NC2(C#N)CCCCC2)nc2c(C)cccc12`, for which the “hERG current change (%, negative = inhibition) at 10uM” value was 9.57%.
For the compound `Cc1c(NC(=O)CSc2nnnn2C)c(=O)n(-c2ccccc2)n1C`, the “hERG current change (%, negative = inhibition) at 10uM” value amounted to 0.477%.
In the case of `C=CCNC(=O)CN1CCC(O)(c2ccccc2)CC1`, the “hERG current change (%, negative = inhibition) at 10uM” value is given as 4.87%.
To `CCCn1c(SCC(=O)N2CCN(C(C)=O)CC2)nc2sc3c(c2c1=O)CCC3` belongs -40%; to `Cc1cccc(Sc2c([N+](=O)[O-])ncn2C)c1`, 13.4%.
Turning to `Cc1nnc(NC(=O)c2ccncc2)s1`, the “hERG current change (%, negative = inhibition) at 10uM” value came to 12.7%.
To `COC(=O)c1ccc2c(=O)sc(N3CCC(C(N)=O)CC3)nc2c1` belongs 0.731%; to `O=C(NC1CCCCC1)c1cc(S(=O)(=O)N2CCCCC2)ccc1N1CCOCC1`, -18.2%; to `O=C(COC(=O)/C=C/c1cccc(F)c1)Nc1ncccn1`, -9.87%.
Regarding `O=C1CCCN1c1ccc(S(=O)(=O)Nc2ccc3c(c2)OCCO3)cc1`, the “hERG current change (%, negative = inhibition) at 10uM” value amounted to 9.93%.
